{"source": "paper PMC9911399", "about": "“Two distinct binding modes provide the RNA-binding protein RbFox with extraordinary sequence specificity”", "binders": {"B1": {"name": "GGUGUCC (DNA:RNA)", "RNA": "GGGAGACCGGAAUUCAGAUUGUCCGGUGUCCUUAAAUCCCGUCGUAGCCACCA", "DNA 1": "CAATCTGAATTCCGGTCTCCC", "DNA 2": "TGGTGGCTACGACGGGATT"}, "B2": {"name": "GACCCUU (DNA:RNA)", "RNA": "B1 RNA with G26A, U27C, G28C, U29C, C30U, C31U", "DNA 1": "CAATCTGAATTCCGGTCTCCC", "DNA 2": "TGGTGGCTACGACGGGATT"}, "B3": {"name": "CGAAAAG (DNA:RNA)", "RNA": "B1 RNA with G25C, U27A, G28A, U29A, C30A, C31G", "DNA 1": "CAATCTGAATTCCGGTCTCCC", "DNA 2": "TGGTGGCTACGACGGGATT"}, "B4": {"name": "CAUGUCC (DNA:RNA)", "RNA": "B1 RNA with G25C, G26A", "DNA 1": "CAATCTGAATTCCGGTCTCCC", "DNA 2": "TGGTGGCTACGACGGGATT"}, "B5": {"name": "AACUAGG (DNA:RNA)", "RNA": "GGGAGACCGGAAUUCAGAUUGUCCAACUAGGUUAAAUCCCGUCGUAGCCACCA", "DNA 1": "CAATCTGAATTCCGGTCTCCC", "DNA 2": "TGGTGGCTACGACGGGATT"}, "B6": {"name": "AGUCGUU (DNA:RNA)", "RNA": "B1 RNA with G25A, G28C, U29G, C30U, C31U", "DNA 1": "CAATCTGAATTCCGGTCTCCC", "DNA 2": "TGGTGGCTACGACGGGATT"}, "B7": {"name": "AACCCAG (DNA:RNA)", "RNA": "B5 RNA with U28C, A29C, G30A", "DNA 1": "CAATCTGAATTCCGGTCTCCC", "DNA 2": "TGGTGGCTACGACGGGATT"}, "B8": {"name": "CCCCGGC (DNA:RNA)", "RNA": "B5 RNA with A25C, A26C, U28C, A29G, G31C", "DNA 1": "CAATCTGAATTCCGGTCTCCC", "DNA 2": "TGGTGGCTACGACGGGATT"}, "B9": {"name": "CGAGAGC (DNA:RNA)", "RNA": "B1 RNA with G25C, U27A, U29A, C30G", "DNA 1": "CAATCTGAATTCCGGTCTCCC", "DNA 2": "TGGTGGCTACGACGGGATT"}}, "note": "Changes are numbered by the printed parent chain; changes in the protein carry UniProt numbers. This is one part of the list.", "data": [{"target": "T1, RBFOX1 RRM RbFoxmut (Fox-RRM*) (Homo sapiens, UniProt Q9NWB1 109-208, R118D;E147R;N151S;E152T)", "T1 sequence": "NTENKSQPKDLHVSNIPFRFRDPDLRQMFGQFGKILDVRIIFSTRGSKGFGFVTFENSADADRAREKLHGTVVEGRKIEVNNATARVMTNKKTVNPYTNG", "assay": "EMSA; HiTS-Eq, 1 nM pool, 10 min; buffer printed only for the single-RNA assays: 10 mM Tris pH 7.5, 150 mM NaCl, 3.4 mM EDTA, 0.001% NP-40, 30 C", "settings": "tags: His6 N-terminal (pET28a); label: 5' 32P", "how_it_was_run": "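Purified RbFox RRM (wild type or mutant) was equilibrated for 10 min in 50 µL with 1 nM of a 5′-radiolabelled pool of RNA with 7 randomized nucleotides, its flanks annealed to DNA oligonucleotides, across increasing protein concentrations. Free RNA was separated by 8% native PAGE, excised, reverse-transcribed, PCR-barcoded and sequenced on an Illumina HiSeq 2500. Relative association constants came from read-count changes of each variant against the control reaction, normalised to the cognate motif.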", "values": [{"binder": "B1", "binding signal": "0.119 KA relative to UGCAUGU"}, {"binder": "B2", "binding signal": "0.0429 KA relative to UGCAUGU"}, {"binder": "B3", "binding signal": "0.081 KA relative to UGCAUGU"}, {"binder": "B4", "binding signal": "0.092 KA relative to UGCAUGU"}, {"binder": "B5", "binding signal": "0.082 KA relative to UGCAUGU"}, {"binder": "B6", "binding signal": "0.0848 KA relative to UGCAUGU"}, {"binder": "B7", "binding signal": "0.0936 KA relative to UGCAUGU"}, {"binder": "B8", "binding signal": "0.0573 KA relative to UGCAUGU"}, {"binder": "B9", "binding signal": "0.0999 KA relative to UGCAUGU"}]}]}
